What all share (test): Viability of human cancer cell lines after 72 h of drug (GDSC screen)
Compound in one assay: COc1cc(C)c(Sc2cnc(NC(=O)c3ccc(CNC(C)C(C)(C)C)cc3)s2)cc1C(=O)N1CCN(C(C)=O)CC1 [BMS-509744]
To be noted: top dose 10.24 µM; top dose inferred. The protocol: (§1)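 Human cancer cell lines in 384-well plates, medium with 10% serum, drug for 72 h over a 256-fold dose range (nine 2-fold or five 4-fold steps up to the top dose). Adherent lines were fixed and stained with the nucleic acid dye Syto60, suspension lines read with resazurin; signal relative to control wells, capped at 0 and 100%. One two-parameter sigmoid per drug and line, fitted in a mixed model over all curves with the slope shared within a line.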

Compound in a further assay: Cn1cncc1[C@@](N)(c1ccc(Cl)cc1)c1ccc2c(c1)c(-c1cccc(Cl)c1)cc(=O)n2C [Tipifarnib]
To be noted: top dose 16 µM; top dose inferred. The protocol: as §1

Compound in another assay: COc1ccccc1S(=O)(=O)Nc1ccc2c(c1)CN(C)C(=O)N2 [PFI-1]
To be noted: top dose 10 µM; top dose inferred. The protocol:
as §1

Compound in the next assay: CCc1cc(Nc2nccc(-c3c(-c4ccc(OC)c(C(=O)Nc5c(F)cccc5F)c4)nc4ccccn34)n2)c(OC)cc1N1CCC(N2CCN(S(C)(=O)=O)CC2)CC1 [GSK-1904529A]
To be noted: top dose 1.024 µM; top dose inferred. The protocol: as §1

Compound in the next assay: CCN1CCN(Cc2ccc(NC(=O)c3ccc(C)c(Oc4ccnc5[nH]ccc45)c3)cc2C(F)(F)F)CC1 [NG-25]
To be noted: top dose 10.24 µM; top dose inferred. Here is the method: as §1

Lines with a small IC50 respond at low doses; a limit (>, <) means that the fit lies beyond the doses tested. AUC, from the same fit, is the share of area under the viability curve across the 256-fold dose range: 1 means no effect, lower means more sensitive. Where the top dose is marked as inferred, it was calculated from the reported fits. Where only a bound is given, the exact number is not on record here.

Turning to SUP-HD1 (Hodgkin lymphoma, suspension), the AUC in the assay with BMS-509744 is 0.903; in the assay with Tipifarnib it was 0.672; with PFI-1, 0.875; in the assay with GSK-1904529A, 0.988; with NG-25, 0.831. Also, the IC50 with BMS-509744 was more than 10.2 µM; with Tipifarnib, 2.93 µM; with PFI-1, 9 µM; in the assay with GSK-1904529A, more than 1.02 µM; with NG-25, 6.07 µM.
Consider LS-1034 (large intestine, adherent), for which the AUC with BMS-509744 amounted to 0.847; with Tipifarnib it was 0.586; in the assay with PFI-1, 0.921; with GSK-1904529A it was 0.986; in the assay with NG-25 it was 0.8. Further, the IC50 with BMS-509744 was 8.76 µM; with Tipifarnib, 1.77 µM; in the assay with PFI-1, more than 10 µM; with GSK-1904529A, more than 1.02 µM; with NG-25 it was 5.55 µM.
For the cell line “NCI-H524 (small cell lung carcinoma, suspension)”, the AUC turned out to be 0.953 with BMS-509744; 0.95 in the assay with Tipifarnib; 0.93 in the assay with PFI-1; 0.991 with GSK-1904529A; 0.991 with NG-25. For the same cell line, the IC50 was more than 10.2 µM with BMS-509744; more than 16 µM with Tipifarnib; more than 10 µM with PFI-1; more than 1.02 µM with GSK-1904529A; more than 10.2 µM in the assay with NG-25.
Turning to “NOMO-1 (acute myeloid leukaemia, suspension)”, the AUC is 0.98 in the assay with BMS-509744; 0.888 with Tipifarnib; 0.703 with PFI-1; 0.982 in the assay with GSK-1904529A; 0.894 in the assay with NG-25. The IC50 with BMS-509744 is more than 10.2 µM; with Tipifarnib, more than 16 µM; with PFI-1, 2.55 µM; with GSK-1904529A, more than 1.02 µM; in the assay with NG-25, more than 10.2 µM.
As to SU-DHL-16 (B-cell lymphoma, suspension), the AUC in the assay with BMS-509744 amounted to 0.953; with Tipifarnib it was 0.46; with PFI-1, 0.776; with GSK-1904529A, 0.815; with NG-25 it was 0.251. In addition, the IC50 with BMS-509744 is more than 10.2 µM; with Tipifarnib it was 0.8 µM; with PFI-1, 2.95 µM; with GSK-1904529A it was 0.383 µM; with NG-25, 0.159 µM.
In the case of CGTH-W-1 (thyroid, adherent), the AUC with BMS-509744 was 0.969; with Tipifarnib, 0.684; in the assay with PFI-1, 0.843; in the assay with GSK-1904529A, 0.985; in the assay with NG-25 it was 0.817. For the same cell line, the IC50 with BMS-509744 was more than 10.2 µM; with Tipifarnib, 3.25 µM; with PFI-1, 7.01 µM; with GSK-1904529A it was more than 1.02 µM; in the assay with NG-25 it was 5.68 µM.
As for Mo-T (hairy cell leukaemia, suspension), the AUC with BMS-509744 was 0.986; with Tipifarnib it was 0.938; with PFI-1, 0.873; with GSK-1904529A, 0.987; in the assay with NG-25, 0.924. The IC50 with BMS-509744 is more than 10.2 µM; with Tipifarnib it was more than 16 µM; with PFI-1, 9.98 µM; with GSK-1904529A it was more than 1.02 µM; with NG-25 it was more than 10.2 µM.
In the case of RKO (large intestine, adherent), the AUC came out at 0.779 with BMS-509744; 0.508 with Tipifarnib; 0.722 in the assay with PFI-1; 0.988 with GSK-1904529A; 0.864 with NG-25. The IC50 with BMS-509744 is 3.87 µM; in the assay with Tipifarnib it was 1.05 µM; with PFI-1, 2.52 µM; with GSK-1904529A, more than 1.02 µM; with NG-25, 7.91 µM.
Regarding HH (T-cell leukaemia, suspension), the AUC stood at 0.886 in the assay with BMS-509744; 0.386 in the assay with Tipifarnib; 0.573 in the assay with PFI-1; 0.955 with GSK-1904529A; 0.631 with NG-25. In addition, the IC50 is more than 10.2 µM in the assay with BMS-509744; 0.438 µM with Tipifarnib; 1.06 µM with PFI-1; more than 1.02 µM in the assay with GSK-1904529A; 1.66 µM in the assay with NG-25.
Turning to “MOLM-13 (acute myeloid leukaemia, suspension)”, the AUC with BMS-509744 was determined as 0.745; with Tipifarnib, 0.674; in the assay with PFI-1, 0.775; in the assay with GSK-1904529A it was 0.986; with NG-25, 0.092. The IC50 with BMS-509744 was 3.04 µM; with Tipifarnib it was 2.95 µM; with PFI-1, 3.71 µM; with GSK-1904529A, more than 1.02 µM; with NG-25, less than 0.04 µM.
As for KURAMOCHI (ovary, adherent), the AUC came out at 0.898 with BMS-509744; 0.702 in the assay with Tipifarnib; 0.822 with PFI-1; 0.982 with GSK-1904529A; 0.897 in the assay with NG-25. The IC50 with BMS-509744 is more than 10.2 µM; in the assay with Tipifarnib, 4.08 µM; in the assay with PFI-1, 7.06 µM; with GSK-1904529A, more than 1.02 µM; in the assay with NG-25, more than 10.2 µM.
For “NCI-H226 (lung squamous cell carcinoma, adherent)”, the AUC was found to be 0.96 with BMS-509744; 0.829 with Tipifarnib; 0.88 in the assay with PFI-1; 0.986 with GSK-1904529A; 0.91 with NG-25. The IC50 was more than 10.2 µM with BMS-509744; 10.7 µM with Tipifarnib; more than 10 µM with PFI-1; more than 1.02 µM in the assay with GSK-1904529A; more than 10.2 µM with NG-25.
For the cell line KLE (endometrium, adherent), the AUC came out at 0.935 with BMS-509744; 0.614 with Tipifarnib; 0.819 in the assay with PFI-1; 0.966 with GSK-1904529A; 0.784 with NG-25. The IC50 with BMS-509744 was more than 10.2 µM; with Tipifarnib it was 2.45 µM; with PFI-1 it was more than 10 µM; in the assay with GSK-1904529A it was more than 1.02 µM; in the assay with NG-25, 7.31 µM.

(Values after the supplement of paper PMC4967469.)
